The results in this text go back to ChEMBL document CHEMBL4888484, “Replenishing the malaria drug discovery pipeline: Screening and hit evaluation of the MMV Hit Generation Library 1 (HGL1) against asexual blood stage Plasmodium falciparum ,using a nano luciferase reporter read-out” (2022).

About 540 (0.36%) of roughly 150,000 compounds showed an effect of 50% or more. The list shows a part of the results.

The test system of the assay is Plasmodium falciparum. Nature of the assay: Primary screen in NF54 nanoGlo assay, in single point, at 2uM, 72h; a lower Z score goes with more inhibition. The conditions noted are these: timepoint 72 hour. The assay is classed as functional, Erythrocyte.
As usually defined, the % Inhibition is the drop in the measured response relative to a control, in per cent. For `O=C(COc1ccccc1F)Nc1ccc(O[C@H]2CCOC2)cc1`, the “% Inhibition” value is listed as -11% and the Z score amounted to 1.23.
In the same order, the values of `CC(C)(C)NS(=O)(=O)c1cnc(NC(=O)[C@H]2CCCO2)s1` are -4% and 0.56.
In the same order, the values of `CC(C)[C@@H](CO)NC(=O)C(O)C1COC(C)(C)O1` (some centres undefined) are 0% and 0.
In the same order, the values of `O=C(NCC1CCC(C(F)(F)F)CC1)c1cc2n(n1)CCCO2` (centres undefined) are -12% and 1.39.
Consider `O=S(=O)(c1cnc(C2OCCO2)s1)N1CCCC2CC21` (centres undefined), for which the “% Inhibition” value is -10% and the Z score was 1.7.
Regarding `FC(F)(F)c1csc(Cn2cnc3c2CCNC32CCOCC2)n1`, the “% Inhibition” value is listed as -5% and the Z score was 0.75.
In the same order, the values of `COc1ccc(Cl)cc1-c1ccccc1CN1CCNCC1` are -12% and 1.21.
In the same order, the values of `Cn1cnc2cc(C(=O)O)c(Nc3ccc(Br)cc3Cl)c(F)c21` are -12% and 1.65.
In the same order, the values of `COc1ccc(-c2ccc(C(=O)N3CCO[C@H](C(=O)O)C3)c(F)c2)c(F)c1` are 2% and -0.37.
Consider `c1cn(CCCOc2ccc(CN3CCOCC3)cc2)cn1`, for which the “% Inhibition” value is listed as -9% and the Z score turned out to be 1.57.
In the same order, the values of `COc1nc(C)ccc1CN=C(N)NCc1ccccc1` are 2% and -0.21.
In the same order, the values of `CCN(CC(=O)Nc1ccc(C)cc1Cl)C[C@H]1CCOC1` are -7% and 0.97.
In the same order, the values of `Cc1ccc(CN2CC[C@H](c3nnc(-c4ccc(N(C)C)cc4)o3)C2)o1` are 29% and -3.26.
Regarding `Cc1noc(C)c1C[C@H](C)NC(=O)NCCCOc1ccc(F)cc1`, the “% Inhibition” value is -7% and the Z score is 1.27.
In the same order, the values of `C=CCN=C(NCCc1ccn(C(C)C)n1)NCC(C)C` are 13% and -1.6.
In the same order, the values of `CN(C)Cc1cc(NC(=O)N(C)Cc2cccc(=O)[nH]2)ccn1` are 6% and -1.27.
For the compound `Cc1nn(C)cc1CN1CCOc2ccccc21`, the “% Inhibition” value is reported as -2% and the Z score was 0.14.
In the same order, the values of `COc1ccc(CN2CCn3nc(C(=O)N4CCN(Cc5ccccc5)CC4)cc3C2=O)cc1` are -12% and 1.42.
In the same order, the values of `Cc1cc(C)nc(N2CCC(Oc3ccc4ncccc4c3)(C(=O)O)CC2)n1` are -1% and 0.08.
For `Cc1noc(-c2ccc(C)c(NC(=O)c3ccc(Br)c(S(=O)(=O)N(C)C)c3)c2)n1`, the “% Inhibition” value was found to be 2% and the Z score is listed as -0.41.
In the same order, the values of `Cc1ccccc1C(C(C)Nc1cccc(C(=O)O)n1)N(C)C` (centres undefined) are -5% and 0.44.
`COc1ccccc1NC(=O)N1CC[C@@H](CO)N(C)c2cccnc2C1`: the “% Inhibition” value is on record as -2% and the Z score came to 0.34.
In the same order, the values of `CCOC(=O)c1c(S(=O)(=O)N2CCC[C@H](C(=O)Nc3cccc(C)c3C)C2)c(C)n(C)c1C` are -12% and 1.11.
In the same order, the values of `O=C(CS(=O)(=O)C1CCCC1)N[C@H](c1ccc(F)cc1)c1ncc[nH]1` are -19% and 2.08.
In the same order, the values of `Cc1cccc(-c2nc(C)c(-c3cc(C(=O)N4CCc5ccccc5C4)[nH]n3)s2)c1` are 2% and -0.32.
As for `Cc1cnc(C(C)(C)NCC(=O)NCc2ccco2)s1`, the “% Inhibition” value is listed as 3% and the Z score is given as -0.33.
In the same order, the values of `COc1cc(N2CCn3c(nc4cc(Cl)ccc43)C2)ccc1NC(=O)c1ccccc1OC` are 32% and -4.38.
In the same order, the values of `Cn1c(C(=O)NC(C)(C)C)cc2c1CCN(Cc1cccc(F)c1)C2` are -19% and 2.57.
In the same order, the values of `O=C(NC1CCCCCC1)c1cc2c(s1)CCCCC2` are 7% and -0.87.
As to `Cc1cnc(N2C[C@H](CO)[C@@H](CO)C2)nc1N(C)C`, the “% Inhibition” value is reported as -3% and the Z score is 0.48.
With `CCn1cc(C(=O)Nc2ccc(Cl)c(C(F)(F)F)c2)cn1`, the “% Inhibition” value is on record as 16% and the Z score is -2.82.
`Cc1cc(=O)cc(C(=O)NC2(CN3CCCCC3)CC2)[nH]1`: the “% Inhibition” value is reported as -19% and the Z score was determined as 2.42.
As to `Cc1ccsc1COc1cnccn1`, the “% Inhibition” value is given as -13% and the Z score is listed as 1.62.
`CCn1cc(OCCN2CCCCC2)cn1`: the “% Inhibition” value is -6% and the Z score was 0.75.
In the same order, the values of `CCOCCCNC(=O)C1CCN(c2nc3ccccc3n(Cc3ccccc3)c2=O)CC1` are -4% and 0.64.
In the same order, the values of `O=C(N[C@H]1CCCS(=O)(=O)C1)c1ccc(C(F)(F)F)c(=O)[nH]1` are -1% and 0.16.
In the case of `CC(C)CN(CC(N)=O)c1ccc(C(F)(F)F)cn1`, the “% Inhibition” value is 6% and the Z score is listed as -0.78.
In the same order, the values of `CC[C@H](C)c1nc(NC2CCC(NC(=O)c3cccs3)CC2)c2cnn(-c3ccccc3Cl)c2n1` (some centres undefined) are -10% and 1.39.
In the case of `Cn1cc(C2C[S+]([O-])CCN2C(=O)CCc2ccsc2)cn1` (centres undefined), the “% Inhibition” value is reported as -12% and the Z score turned out to be 1.28.
In the case of `O=C(CCC1CCN(C(=O)Cc2ccccc2F)CC1)Nc1ccc2c(c1)OCCO2`, the “% Inhibition” value is on record as -1% and the Z score is listed as 0.14.
In the same order, the values of `CCC(NC(=O)Nc1ccc(Br)cc1Br)(C(F)(F)F)C(F)(F)F` are 1% and -0.09.
In the same order, the values of `COC(=O)c1ncn(CN2CCN(Cc3ccc(OC)cc3)CC2)n1` are -12% and 1.59.
